Assay results as given in article PMC4336329 (PLoS ONE, 2015).
In all, about 310,000 compounds went through this assay and about 2,200 (0.71%) showed an effect of 50% or more. Effects have a minus sign here. The list shows a part of the results.

target: human ether-à-go-go-related gene (hERG) potassium channel (human, UniProt Q12809); test: primary screen, population patch clamp on CHO cells stably expressing hERG
Sequence (Q12809 whole entry, looked up): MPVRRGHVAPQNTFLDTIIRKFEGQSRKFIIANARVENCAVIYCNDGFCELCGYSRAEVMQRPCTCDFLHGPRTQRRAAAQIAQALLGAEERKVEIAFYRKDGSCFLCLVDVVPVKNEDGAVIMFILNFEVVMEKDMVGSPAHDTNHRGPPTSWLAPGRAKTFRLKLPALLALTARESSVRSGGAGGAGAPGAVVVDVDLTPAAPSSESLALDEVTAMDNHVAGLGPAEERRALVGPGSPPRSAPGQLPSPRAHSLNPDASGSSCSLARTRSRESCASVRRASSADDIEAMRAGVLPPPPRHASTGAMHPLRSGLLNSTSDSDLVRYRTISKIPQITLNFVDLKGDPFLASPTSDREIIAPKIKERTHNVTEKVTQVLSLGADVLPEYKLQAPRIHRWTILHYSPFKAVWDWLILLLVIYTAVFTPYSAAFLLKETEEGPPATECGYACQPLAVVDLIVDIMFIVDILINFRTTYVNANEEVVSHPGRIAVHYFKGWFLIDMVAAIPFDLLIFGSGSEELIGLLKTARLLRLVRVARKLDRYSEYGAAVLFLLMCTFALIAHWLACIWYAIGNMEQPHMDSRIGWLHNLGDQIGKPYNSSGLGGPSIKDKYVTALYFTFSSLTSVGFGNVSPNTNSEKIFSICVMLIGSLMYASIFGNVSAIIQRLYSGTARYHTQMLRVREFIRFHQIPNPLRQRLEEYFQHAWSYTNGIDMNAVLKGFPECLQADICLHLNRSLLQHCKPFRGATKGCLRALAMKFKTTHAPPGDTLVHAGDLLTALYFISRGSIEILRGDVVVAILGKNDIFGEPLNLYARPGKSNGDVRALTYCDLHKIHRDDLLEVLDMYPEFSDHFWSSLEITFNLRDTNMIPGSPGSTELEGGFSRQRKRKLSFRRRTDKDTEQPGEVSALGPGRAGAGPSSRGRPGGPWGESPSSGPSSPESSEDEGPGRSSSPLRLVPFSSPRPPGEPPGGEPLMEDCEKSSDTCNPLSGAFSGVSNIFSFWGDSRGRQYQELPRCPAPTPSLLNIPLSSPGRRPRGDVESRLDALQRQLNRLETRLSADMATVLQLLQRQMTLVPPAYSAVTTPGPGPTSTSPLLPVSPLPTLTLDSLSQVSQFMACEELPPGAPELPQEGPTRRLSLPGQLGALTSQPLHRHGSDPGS

Row | Compound | hERG current change (%, negative = inhibition) at 1uM [%]
1 | COc1ccc(C(=O)O/N=C(\N)c2ccc(Br)cc2)cc1 | 15.8
2 | N#Cc1cc(-c2ccccc2)nc(Oc2ccc(Cl)cc2)n1 | 10.1
3 | Cc1nc(NC(=O)CCl)sc1C(=O)N(C)C | 16.6
4 | CCOc1ccc(-n2cc(C(=O)N3CCC(C)CC3)c3cc(OC)c(OC)cc3c2=O)cc1 | 2.55
5 | O=C(NCCc1csc(-c2cccnc2)n1)c1ccccc1Br | 4.97
6 | COc1cccc(C(=O)OC(C)C(=O)Nc2ccc3c(c2)OCO3)c1 (stereo not drawn) | 1.8
7 | COc1ccccc1C(=O)OCC(=O)Nc1ccc(OC(F)F)cc1 | 11
8 | COc1ccc(/C=N/n2c(-c3n[nH]c4c3CCC4)n[nH]c2=S)cc1 | 19.8
9 | COc1ccccc1NC(=O)COC(=O)c1c(C)nn(-c2ccccc2)c1C | -4.11
10 | Brc1ccc(-c2ncc3ccccn23)cc1 | 14.2
11 | O=C(Nc1ccc(S(=O)(=O)N2CCOCC2)cc1)c1ccc([N+](=O)[O-])cc1Cl | 8.2
12 | CC(=O)Nc1ccc(OC(=O)Cc2ccc(Cl)cc2)cc1 | 9.31
13 | Cc1cccc(N2CCN(C(=O)c3ccccc3NC(=O)C3=CSCCO3)CC2C)c1 (stereo not drawn) | -0.767
14 | Cc1ccc(C(=O)N/C(=C/C=C\c2ccccc2)C(=O)NCc2ccco2)cc1 | -1.93
15 | COC(=O)c1sccc1S(=O)(=O)Nc1ccc(C)cc1 | 17.6
16 | CSc1ccccc1C(=O)Nc1ncc(C)s1 | 12.7
17 | COc1ccc(-n2ncc3c2CC(C)(C)CC3NC(=O)CN2CCOC2=O)cc1 (stereo not drawn) | -4.4
18 | COc1cc(/C=C(/NC(=O)c2ccccc2)C(=O)N2CCOCC2)c([N+](=O)[O-])cc1OC | -1.64
19 | O=C(NCCC1=CCCCC1)C1CCN(S(=O)(=O)c2cccc3nonc23)CC1 | 9.83
20 | CCC(CC)C(=O)Nc1ccc(S(=O)(=O)Nc2nccs2)cc1 | 11.1
21 | C=C(C)CNC(=O)CCc1nnc(C2(c3ccc(Cl)cc3)CCC2)o1 | 12.3
22 | CCCCNC(=O)Cc1cc(=O)[nH]c(=O)[nH]1 | 5.81

Row | Compound | hERG current change (%, negative = inhibition) at 1uM [%]
23 | COc1ccc2ccccc2c1/C=N/N1C(=O)CSC1=S | 16.1
24 | CCCCN(CC)CCNC(=O)c1cc2c(-c3ccc(Cl)cc3)nn(C)c2s1 | -33.2
25 | N#CCCN(C(=O)Nc1ccc(Cl)c(Cl)c1)c1ccccc1 | 3.6
26 | Nc1ccc(N2CCN(c3ccc(F)cc3)CC2)cc1 | 13.2
27 | Cc1cc2c(NC(=O)Nc3ccc(F)cc3)cccc2nn1 | 14.9
28 | COc1ccccc1CNC(=O)C1CCC(CNc2c(N3CCC(C)CC3)c(=O)c2=O)CC1 (stereo not drawn) | 10.8
29 | Cc1cc(CNC(=O)[C@H]2C[C@@H]2[C@H](NP(=O)(c2ccccc2)c2ccccc2)c2ccccc2)nn1C | 0.461
30 | Cc1ccc(C(=O)C2=C(O)C(=O)N(CCCN3CCOCC3)C23C(=O)N(C)c2ccccc23)o1 (stereo not drawn) | 22.9
31 | CCCCOc1ccc(/C=C(\C#N)C(=O)NC2CC2)cc1 | 8.4
32 | COc1cc(NS(=O)(=O)c2ccc(NC(=O)COc3ccccc3Cl)cc2)nc(OC)n1 | 4.62
33 | COc1cc2c(cc1OC)C(C(=O)NC(C)C)C1CCCCN1C2=O (stereo not drawn) | 6.44
34 | CCN(C(=O)Cc1c(C(=O)O)n(C)c2ccccc12)c1ccc(F)cc1 | 15.8
35 | CC1(C)SC(=S)N(/N=C/c2ccccc2O)C1N(O)C(=O)Nc1ccccc1 (stereo not drawn) | 10.4
36 | COCCOC(=O)C1=C(C)NC2=C(C(=O)CC(C)(C)C2)C1c1cc2c(cc1Br)OCO2 (stereo not drawn) | 12.2
37 | C=C(C)CSc1nnc(-c2cccc(Cl)c2)n1N | 10.2
38 | Cc1ccc(NC(=O)NCCN2CCCCC2)cc1Cl | -8.19
39 | CCOC(=O)C1CCN(C(=O)Cn2cc(C(=O)C3CC3)c3ccccc32)CC1 | 13.4
40 | S=C(NCC1CCCO1)NC12CC3CC(CC(C3)C1)C2 (stereo not drawn) | 14.6
41 | CC1=C(C#N)C(c2cn(-c3ccccc3)nc2-c2cccs2)C(C#N)=C(C)N1 | 7.98
42 | CN(c1ccccc1)S(=O)(=O)c1cccc(NC(=O)CSc2ncn[nH]2)c1 | -8.15
43 | O=C(C[n+]1ccccn1)c1ccccc1.[Br-] | 18.1
44 | C=CCOc1ccc(C2/C(=C(\O)c3ccc4c(c3)OCCO4)C(=O)C(=O)N2CCCN2CCOCC2)cc1 (stereo not drawn) | 8.67

Row | Compound | hERG current change (%, negative = inhibition) at 1uM [%]
45 | O=C(NCCCn1ccnc1)c1cccnc1 | 4.84
46 | Cc1cc(C)nc(SCc2ccc(C(=O)N/N=C/c3cccnc3)cc2)n1 | -28.6
47 | CC(C)(C(=O)O)n1cncn1.Cl | 35.4
48 | COc1cc(C(=S)N2CCCC2)ccc1OCc1ccc(C)cc1 | 13.7
49 | COc1ccc(/C=N/NC(=O)c2ccco2)cc1Cn1nc(C)cc1C | 8.22
50 | CC(C)(C)N(C=C(Cl)Cl)C(=O)NC1CCCCC1 | 9.86
51 | C#CCOCCOCCOCCNc1nc(N2CCN(C(=O)[C@H](CCC(=O)O)n3cc(C(N)Cc4ccc(O)cc4)nn3)CC2)nc(N2CCN(C(=O)[C@H](CCC(=O)O)n3cc(C(N)Cc4ccc(O)cc4)nn3)CC2)n1.Cl (stereo partly drawn) | 12.3
52 | O=C(OCC(=O)N1CCc2ccccc21)c1ccc([N+](=O)[O-])cc1 | 14.6
53 | CCOc1ccc(N2CC(C(=O)N3CC(C)OC(C)C3)CC2=O)cc1 (stereo not drawn) | 15.2
54 | CC1Cc2ccccc2N1C(=O)CN1C(=O)COc2ccccc21 (stereo not drawn) | 14.6
55 | CN[C@@H]1[C@H](O)[C@H](NC)[C@H]2O[C@@]3(O)C(=O)C[C@@H](C)O[C@H]3O[C@@H]2[C@H]1O.Cl.O | 11.3
56 | CCCOc1ccccc1N/C(=N\S(=O)(=O)c1ccc(C)cc1)Nc1nc(C)cc(C)n1 | 10.8
57 | O=C(c1ccc(F)cc1)N1CCCC(c2nc(-c3ccncc3)no2)C1 (stereo not drawn) | -35.5
58 | O=C(COC(=O)c1cccc(S(=O)(=O)N2CCOCC2)c1)NCCc1ccccc1 | 0.565
59 | Cn1nc(-c2ccc(Cl)cc2)c2cc(C(=O)NCCCN3CCOCC3)sc21 | -2.67
60 | Cc1nnc(SCC(=O)N(C)c2ccccc2)n1Cc1ccccc1 | -1.15
61 | CCOC(=O)C1CCN(Cc2ccc(-c3ccccc3)cc2)CC1 | 8.54
62 | CCC1CN(C(=O)NCc2ccc(C)cc2)c2cc(Cl)ccc2O1 (stereo not drawn) | 11.5
63 | CCOC(=O)c1c(-c2cccc([N+](=O)[O-])c2)cn2ccccc12 | 12.3
64 | N/C(=N\OCc1ccccc1)c1nonc1N | 13.2
65 | COc1ccc(/C=N/NC(=O)c2c(Br)cnn2C)c2ccccc12 | 18.4
66 | O=C(NCc1ccc2c(c1)OCO2)C1CCC(CNc2c(N3CCCCC3)c(=O)c2=O)CC1 (stereo not drawn) | 1.06

Row | Compound | hERG current change (%, negative = inhibition) at 1uM [%]
67 | COc1ccc(COC(=O)C2=C(C)NC(=O)NC2c2ccccc2)cc1 (stereo not drawn) | 15.9
68 | Cc1nc2ccc(C(=O)OCc3nnc(-c4ccc(Br)cc4)o3)cc2nc1C | 15.4
69 | Cc1cc(Oc2ccc(Cl)cc2)nc(-c2ccccn2)n1 | 15.7
70 | CCCOc1ccc(-c2csc3ncn(Cc4ccc(C(=O)O)cc4)c(=O)c23)cc1 | 10.2
71 | CC1CCCN(S(=O)(=O)c2ccc(S(=O)(=O)N3CCCC3)cc2)C1 (stereo not drawn) | 18.7
72 | Cc1ccc2occ(/C=N/NC(=O)c3ccccc3O)c(=O)c2c1 | 12.7
73 | O=c1cc(-c2ccc([N+](=O)[O-])cc2)c2ccc(O)cc2o1 | 0.138
74 | Cc1cc(NC(=O)c2cccc(S(=O)(=O)N3CCCC3)c2)no1 | 4.75
75 | CCCc1cc(C(=O)Nc2cccnc2Cl)no1 | 9.15
76 | O=C(Nc1ccccc1)C1=C(O)CC(c2ccoc2)CC1=Nc1ccccc1 (stereo not drawn) | 17.3
77 | O=C(O)CC/C(=N\NC(=O)CNC(=O)/C=C/c1ccccc1)c1ccccc1 | 12.8
78 | Cc1ccc(NNC(=O)c2ccno2)c(C)c1 | 11.1
79 | COC(=O)C(Cc1ccc(O)cc1)NC(=O)c1ccc2c(c1)OCCO2 (stereo not drawn) | 15.2
80 | COc1ccc(C(=O)NC(=S)NCc2cccnc2)cc1Br | 1.85
81 | CCCCS(=O)(=O)c1sc2nc(C)cc(C)c2c1N | 12.2
82 | O=C(Nc1nc(-c2ccccc2)cs1)Nc1ccc(F)cc1F | 6.19
83 | CC(=O)N1N=C(c2cccc([N+](=O)[O-])c2)OC1(C)c1cccs1 (stereo not drawn) | 4.03
84 | Cc1c(NC(=O)Nc2cccs2)cccc1[N+](=O)[O-] | -2.27
85 | Cc1cc(C)cc(NC(=O)Cn2cc3c(n2)CCCCC3)c1 | 4.91
86 | Cc1ccc(N(C(=O)CCC(=O)Nc2cc(C)on2)C(C(=O)NC2CCCC2)c2cccs2)cc1 (stereo not drawn) | 0.152
87 | CCOC(=O)C1CCN(C(=O)COc2cccc3ccccc23)CC1 | 4.56
